# Experimental data: PubChem BioAssay AID1347120 (National Center for Advancing Translational Sciences (NCATS), 2019)
# The whole screen tested about 390,000 compounds, of which about 930 (0.24%) were called active. The inconclusive results got no clear call from the source; some entries with a clear call stand among them for comparison. Calls come from the whole dose curve; as a rule, active = well fitted activation curve with a large enough effect; inconclusive = small, poorly fitted or top-dose-only effect; inactive = no such curve, though single readings can be large or run the other way. A potency beside an inconclusive call is a rough fit, not a confirmed value.
# Assay: qHTS for Suppressors of FUS Proteinopathy: Primary screen using FUS-linked yeast assay; note: nearly all actives have a fitted effect of over 55% in size;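 for growth rescue (activation): plate controls were DMSO vehicle for no effect and reference control for full effect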
# Conditions: S. cerevisiae FUS-expressing, OD600, 24 h; Potency: growth rescue; growth rescue (activation): at 76.6 µM (top of the series)
# Summary of the method: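 Absorbance at 600 nm, taken 24hr after compound addition, measured rescue of FUS-yeast growth at 30C. Induction used 2% galactose with seeding at OD 0.005. Controls: CP55940 from 92uM final, DMSO only.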
# Potency is the fitted concentration of half-maximal effect; tags give direction and shape of the fitted curve.
SMILES,Potency,growth rescue (activation)
CCOC(=O)c1c(C)c(C(=O)N2CCN(c3cccc(Cl)c3)CC2)c(C)n1C,"inconclusive: 20 µM [activator, partial curve, poor fit]",–
COc1cccc(CNC(=O)C2CCCN(c3ncnc4onc(-c5ccc(F)cc5)c34)C2)c1 (configuration not stated),"inconclusive: 31.6 µM [activator, partial curve, poor fit]",–
O=C(Nc1ccc2c(c1)N(C1CCCC1)C(=O)c1ccccc1S2)c1cccc(F)c1,–,inactive: -12.7%
COc1ccc(COc2cc(-c3cccc(OC)c3)nc3ccc(NC(=O)c4ccccc4)cc23)cc1,–,inactive: 10.1%
O=C1CC(c2nc(-c3cccc(Cl)c3)no2)CN1c1ccc2c(c1)OCCO2 (configuration not stated),–,inactive: 3.11%
CN(C)CC(=O)N[C@@H]1C[C@@H]2O[C@@H](CO)CC[C@@H]2O[C@@H]1CCc1ccc(-c2ccc(F)cc2)cc1,–,inactive: 5.08%
Cc1ccc(OCC(=O)Nc2cccc(-c3nnc(-c4ccccc4)o3)c2)c(C)c1,"inconclusive: 10 µM [activator, partial curve, poor fit]",–
C[C@@H]1CC=C[C@H]2[C@H]1C(=O)N(Cc1ccccc1)[C@H]2c1cccc([N+](=O)[O-])c1,"inconclusive: 50.1 µM [activator, single point]",–
COc1ccc(CN2C(=O)c3cccnc3C2Nc2ccc(OC)c(Cl)c2)cc1 (configuration not stated),active: 31.6 µM,–
Cc1ccnc(NC(=O)CCC(=O)c2cccs2)c1,"inconclusive: 25.1 µM [activator, partial curve, poor fit]",–
CCOC(=O)N1CCN(C(=O)C[C@H]2C[C@@]3(C(=O)OC)C(=C[C@H](C(C)C)O[C@@H]3C3CC3)N(CCC3=CCCCC3)C2=O)CC1,active: 12.6 µM,–
Cc1ccc(C2CC(c3cccs3)=NN2C(=O)CSC2=NN3CCCC(=O)N=C3S2)cc1 (configuration not stated),"inconclusive: 35.5 µM [activator, single point]",–
Cn1c(COc2ccc3ccccc3c2)nnc1SCC(=O)OC1CCCCC1,"inconclusive: 25.1 µM [activator, partial curve, poor fit]",–
CCOC(=O)c1c(C)n(S(=O)(=O)c2ccc(C)cc2)c2ccc(O)c(C(=O)O)c12,–,inactive: 23.8%
Cn1c(C=O)c(-c2ccc3cc[nH]c3c2)c2ccccc21,"inconclusive: 28.2 µM [activator, single point]",–
CCOC(=O)N1CCC(NC(=O)CCc2c(C)nc3c(c(C)nn3C(C)(C)C)c2C)CC1,"inconclusive: 15.8 µM [activator, partial curve]",–
Cc1ccc(C)c(CN2C(=O)C3(c4ccccc42)N(c2cccc(C(F)(F)F)c2)C(=O)CS3(=O)=O)c1 (configuration not stated),"inconclusive: 4.47 µM [activator, full curve]",–
O=C(C1CCN(S(=O)(=O)Cc2ccccc2)CC1)N1CCN(c2ccc(F)cc2)CC1,–,inactive: -4.71%
COc1ccc(NC(=O)Cc2c(Sc3ccccc3)c3ccccc3n2C)cc1,"inconclusive: 44.7 µM [activator, partial curve, poor fit]",–
O=c1cc(-c2ccccc2)n(S(=O)(=O)c2ccccc2)o1,–,inactive: 37.1%
O=C(N/N=C1/CCc2ccccc21)C1CC1,–,inactive: -10.1%

SMILES,Potency,growth rescue (activation)
N=c1c(C(=O)NCc2ccco2)cc2c(=O)n3ccccc3nc2n1CCc1ccccc1,"inconclusive: 2 µM [activator, full curve, poor fit]",–
COc1cc(NC(=O)c2cccs2)c(OC)cc1NC(=O)CCC(=O)Nc1ccc2ncccc2c1,"inconclusive: 11.2 µM [activator, partial curve]",–
CC(/C=N/NC(=O)c1cc(-c2ccc3ccccc3c2)n[nH]1)=C\c1ccco1,"inconclusive: 39.8 µM [activator, partial curve, poor fit]",–
CSCCC(NS(=O)(=O)c1ccc(C)cc1)C(=O)N1CCN(C(c2ccccc2)c2ccccc2)CC1 (configuration not stated),"inconclusive: 11.2 µM [activator, partial curve]",–
Oc1ccc(-c2nccc(-c3ccccn3)n2)cc1,"inconclusive: 31.6 µM [activator, partial curve, poor fit]",–
Cc1cc(/C([O-])=C(/C(=S)Nc2ccccc2)[n+]2ccccc2)c(C)n1-c1ccccc1,active: 15.8 µM,–
CCOc1ccc(Sc2cc(C(=O)NC(C)CC)c3ccccc3n2)cc1 (configuration not stated),–,inactive: -16.7%
COc1ccccc1N1CCN(C(=O)Cc2ccc(Cl)cc2)CC1,–,inactive: 30.2%
CCc1cccc(NC(=O)c2cnc(SC)nc2-c2ccccc2)c1,"inconclusive: 35.5 µM [activator, single point]",–
CC(C)CC1C(=O)N(Cc2cn(CCC3OCCO3)nn2)CCS(=O)(=O)N1Cc1ccc(-c2ccc(Cl)c(Cl)c2)cc1 (configuration not stated),"inconclusive: 28.2 µM [activator, single point]",–
CCCCNC(=O)C[C@H]1C[C@@]2(C(=O)OC)C(=C[C@H](C(C)C)O[C@@H]2C2CC2)N(Cc2ccc(Cl)cc2Cl)C1=O,–,inactive: -12.7%
Cc1cccc(NC(=O)Cc2ccc(-c3ccccc3)cc2)n1,–,inactive: 10.9%
CC(C)Nc1nnc(SCC(=O)c2c(N)n(Cc3ccccc3)c(=O)n(C)c2=O)s1,–,inactive: -4.04%
C=CCN=C1NN=C(c2ccc3c(c2)OCCO3)CS1,"inconclusive: 22.4 µM [activator, partial curve, poor fit]",–
CCc1ccc(CCNC(=O)OCCCN2CCC3(CCC(c4ccccc4)CC3)C2=O)cc1 (configuration not stated),–,inactive: 37.3%
CCCCCc1ccc(CC(=O)Nn2c(C)nc3ccccc3c2=O)cc1,"inconclusive: 39.8 µM [activator, single point]",–
Cc1ccc(-c2nnc(Nc3ccc(Br)cc3)c3ccccc23)cc1S(=O)(=O)NCc1nc2ccccc2[nH]1,"inconclusive: 50.1 µM [activator, single point]",–
COc1cccc(NC(=O)c2ccccc2)c1,–,inactive: -8.23%
CCCCCNC(=O)C(c1ccc(-c2ccccc2)cc1)n1c(=O)c(-c2cc3ccccc3[nH]2)nc2ccccc21 (configuration not stated),–,inactive: 16.3%
CCCNS(=O)(=O)c1cc(-c2nnc3c4ccccc4c(C)nn23)ccc1OC,–,inactive: 1.38%
O=C(NCCc1ccccc1)c1cc2ncc(Br)cn2n1,"inconclusive: 3.55 µM [activator, partial curve, poor fit]",–
